The results in this text go back to ChEMBL document CHEMBL1157539, “Thousands of chemical starting points for antimalarial lead identification” (Nature, 2010).

Whole data set: some 13,000 compounds, median “IFI” near 4, cut for the highest 2% near 17. Some of the results follow.

This experiment in a line: GSK_TCMDC: Inhibition Frequency Index (IFI). The number of non-kinase HTS assays where a compound showed > 50 % inhibition, expressed as a percentage of the number of such assays in which the compound was tested (-0 is zero). It counts as functional.
`c1ccc(C23NC(=Nc4nc5ccccc5[nH]4)NC2(c2ccccc2)NC(=Nc2nc4ccccc4[nH]2)N3)cc1` (centres undefined) returned an IFI of 1.44%. For `O=C(/C=C/c1ccc(Cl)c(Cl)c1)N1CCC(CNCc2cccc3cc[nH]c23)CC1` the value was 15.2%; for `Cc1cccc2nc(-c3ccc(-c4cccc(CN5CCCC(N)C5)c4)s3)[nH]c12` (centres undefined), 4.23%; for `CC1(C)CC(NC(=O)NC2CCN(Cc3ccccc3)CC2)CC(C)(CNC(=O)NC2CCN(Cc3ccccc3)CC2)C1` (centres undefined), 0%. For `CCOc1c(CNCCCNc2cc(=O)c3ccccc3[nH]2)cc(I)cc1C(C)(C)C` the value was 7.48%. Then `COc1ccc2c(c1)CC(CNC[C@H](O)c1cccc(Cl)c1)CC2` (some centres undefined), with 0.75%; and `O=C(c1cc2nc3c(c(C(F)(F)F)n2n1)CCc1ccccc1-3)N1CCN2CCCC2C1` (centres undefined), with -0%. Consider `CC(=O)Nc1ccc(C(=O)Nc2cccc(-c3ccc(-c4nc5cc(C(F)(F)F)ccc5[nH]4)s3)c2)cn1`, for which the IFI worked out at 1.79%. Molecule `Cc1cccc(CNc2nc(C)cc(N[C@@H](Cc3ccccc3)C(=O)NC3CCCC3)n2)c1` had an IFI of 27.3%. For `Cc1cc(CN2CCC(C(=O)Nc3ccc(-c4nc5ccccc5[nH]4)cc3)CC2)oc1C` the value was -0%; for `CCOC(=O)c1cc(Cl)ccc1OCCCON1C(=N)N=C(N)NC1(C)C`, 3.01%.

For `Cc1oc(-c2cccc(Oc3ccccc3)c2)nc1CN(Cc1cnn(C)c1)C(C)C`, the IFI was determined as 2.7%.

In the case of `Nc1nc(N)c2c(Oc3ccc(Cl)c(Cl)c3)cccc2n1`, the IFI was 7.58%.

`CC(CNC(=O)[C@H]1CNCCN1C(=O)CCCc1ccccc1)c1ccccc1` (some centres undefined) returned an IFI of 2.84%.

For the molecule `C[C@@H](N)C#Cc1cc2c(Nc3ccc(OCc4cccc(F)c4)c(Cl)c3)ncnc2s1`, the IFI is 7.97%. Take `CCCn1c(O)nnc1SCC(=O)Nc1cc(Cl)ccc1Cl`: the IFI is -0%. For `CN1CCN(CCCN(Cc2csc(-c3ccc(CNCc4ccccc4)cc3)n2)C(=O)c2cc(F)cc(F)c2)CC1` the value was 5.52%; for `CN1CCC(N2CCN(C(=O)c3cccc(-c4cccc(-c5nc6ccccc6[nH]5)c4)c3)CC2)CC1`, 3.96%; for `COc1ccccc1-c1ccc(C(=O)NCC2CCCN(Cc3cccc(C(F)(F)F)c3)C2)s1` (centres undefined), 3.7%. In turn, `CCc1c[nH]c2c(N3CCCCC3=O)cc(C(=O)N[C@@H](Cc3ccccc3)[C@H](O)CNCc3cccc(OC)c3)cc12` had an IFI of 2.14%. In turn, `FC(F)(F)c1ccc(CNCC2CCN(Cc3ccc4c(c3)OCO4)CC2)cc1` registered an IFI of 3.42%. For `COc1ccc(C2CC(c3cccs3)=NN2C(=O)COc2cccc(C(C)=O)c2)cc1OC` (centres undefined), the IFI stood at 0%. Then `COc1ccc2nccc([C@@H](O)CN3CCC(NC(=O)c4ccc(Oc5ccccc5)cc4)CC3)c2c1`, with 9.63%; and `COc1ccc2[nH]ccc(=NN=Cc3cccc(C)n3)c2c1`, with 2.19%.
